From PubChem BioAssay AID624170 (National Center for Advancing Translational Sciences (NCATS), 2012)
Several values for one entry are separate records, joined by “and”; a condition that tells them apart may be missing. Identical values can stand only once. The campaign covered roughly 410,000 compounds. About 850 (0.21%) were called active. The inconclusive results got no clear call from the source; some entries with a clear call stand among them for comparison. Calls follow the shape of the dose curve; as a rule, active = well fitted inhibition curve with a large enough effect; inconclusive = small, poorly fitted or top-dose-only effect, or another doubt; inactive = no such curve, though single readings can be large or run the other way. Where the call is inconclusive, the potency comes from a doubtful curve fit.

These molecules were tested against Glutaminase kidney isoform, mitochondrial (Homo sapiens) (UniProt O94925) (assay: qHTS for Inhibitors of Glutaminase (GLS)). Conditions: GLS enzymatic activity, qHTS titration; series mostly up to 45.5 µM.
UniProt O94925, sequence (O94925 whole entry, looked up, canonical isoform): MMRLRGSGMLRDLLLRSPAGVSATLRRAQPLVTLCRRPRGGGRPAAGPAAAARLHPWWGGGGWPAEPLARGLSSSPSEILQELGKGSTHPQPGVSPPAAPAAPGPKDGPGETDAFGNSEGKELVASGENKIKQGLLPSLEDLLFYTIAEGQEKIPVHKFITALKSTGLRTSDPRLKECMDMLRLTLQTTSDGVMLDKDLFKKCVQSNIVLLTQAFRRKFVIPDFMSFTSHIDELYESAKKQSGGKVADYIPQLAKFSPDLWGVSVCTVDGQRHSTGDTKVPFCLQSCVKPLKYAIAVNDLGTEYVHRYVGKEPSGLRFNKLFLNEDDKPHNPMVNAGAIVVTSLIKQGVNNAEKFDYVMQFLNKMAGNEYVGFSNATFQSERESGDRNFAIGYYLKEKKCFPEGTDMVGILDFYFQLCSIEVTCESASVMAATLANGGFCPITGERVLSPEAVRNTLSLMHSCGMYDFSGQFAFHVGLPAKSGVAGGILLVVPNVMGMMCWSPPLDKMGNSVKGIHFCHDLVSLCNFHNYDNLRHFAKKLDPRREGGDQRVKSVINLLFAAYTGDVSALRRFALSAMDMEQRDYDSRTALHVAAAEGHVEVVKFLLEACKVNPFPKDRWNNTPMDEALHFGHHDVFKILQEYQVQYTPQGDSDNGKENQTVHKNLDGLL
Outline: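 hKGA in 45 mM KH2PO4 pH 8.2, 0.02% Tween-20 with pin-transferred compounds; 1 mM L-glutamine (stock) plus glutamate oxidase/HRP/Amplex Red coupling added. Fluorescence read initially and after 30 min at RT.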
Potency is read from the fitted curve at half-maximal effect; tags tell the direction and shape of the fitted curve.

SMILES	Potency
CCN1/C(=C/C=C/C2=[N+](CC)c3ccccc3C2(C)C)C(C)(C)c2ccccc21	inactive
Cc1ccc(C(=O)C2(C)N(O)C(C)C(c3cccs3)=[N+]2[O-])cc1 (configuration not stated)	inconclusive: 25.1 µM [inhibitor, single point]
O=C1NC(=S)N(c2ccccc2)C(=O)/C1=C/c1ccco1	inconclusive: 17.8 µM [inhibitor, partial curve, poor fit]
O=C(O)CCn1cc(C=C2C(=O)NC(=S)NC2=O)c(-c2ccccc2)n1	inconclusive: 35.5 µM [inhibitor, single point]
O=C(O)CCn1cc(C=C2C(=O)NC(=S)NC2=O)c(-c2cc3ccccc3oc2=O)n1	inconclusive: 22.4 µM [inhibitor, single point]
CCC(C)N1C(=O)/C(=C/c2ccc3c(c2)CCN3CCCCl)C(=O)NC1=S (configuration not stated)	inconclusive: 31.6 µM [inhibitor, single point]
COC(=O)C1=C(c2ccc(F)cc2F)C[C@@H]2CC[C@H]1N2C(=O)NCCOc1ccccc1Cl	inactive
Cc1ccc(-n2c(O)c(/C=N/N3CCCCC3c3cccnc3)c(=O)[nH]c2=S)cc1 (configuration not stated)	inactive
O=C1NC(=O)N(c2ccccc2F)C(=O)/C1=C/c1ccc(Sc2nc3ccccc3[nH]2)o1	inconclusive: 25.1 µM [inhibitor, single point]
CCOC(=O)[C@]12Cc3ccccc3[C@H]1N(CCC(=O)OC)C(=O)c1ccccc12	inconclusive: 35.5 µM [inhibitor, single point]
O=C1NC(=O)N(c2ccccc2)C(=O)/C1=C/c1ccoc1	inconclusive: 22.4 µM [inhibitor, single point]
Cc1cc(C)c(Cn2c(C(=O)O)c(C=O)c3ccccc32)c(C)c1	inactive
O=C(CSc1nc(-c2cccs2)nc2cc(=O)[nH]n12)Nc1ccc(F)cc1	inconclusive: 35.5 µM [inhibitor, single point]
Fc1ccccc1CNCCc1ccc2c(c1)OCO2	inactive
O=C1/C(=C\c2ccc(Cl)c(Cl)c2)N2CCC1CC2	inconclusive: 12.6 µM [inhibitor, single point]
COc1cccc2c1C(=O)c1c(O)c3c(c(O)c1C2=O)C[C@@](O)(C(=O)CO)C[C@@H]3O[C@H]1C[C@H](N)[C@H](OC2CCCCO2)[C@H](C)O1 (some centres not stated)	active: 15.8 µM
CC1(O)CCC2C3CCC4=CC(=O)CCC4(C)C34OC4CC21C (configuration not stated)	inconclusive: 22.4 µM [inhibitor, partial curve, poor fit]
COc1ccc2c3c([nH]c2c1)C(C)NCC3 (configuration not stated)	inconclusive: 7.94 µM [inhibitor, partial curve, poor fit]
Cc1ccccc1-n1c(/C=C/c2ccc(N(C)C)cc2)nc2ccccc2c1=O	inactive
O=[N+]([O-])c1cc([As](=O)(O)O)ccc1O	inactive and inconclusive: 11.2 µM [inhibitor, partial curve]
COc1ccc(C=C2C(=O)N(C)C(=O)N(C)C2=O)cc1COc1ccc(NC(C)=O)cc1	inactive
Cc1nc2ccccc2c(=O)n1-c1ccc(Br)cn1	inactive
Nc1ccc2nc3c(c(Cl)c2c1)CCCC3	inconclusive: 3.98 µM [inhibitor, partial curve, poor fit]

SMILES	Potency
CCC(C)n1c(O)c(/C=N/N2CCOCC2)c(=O)[nH]c1=S (configuration not stated)	inconclusive: 35.5 µM [inhibitor, single point]
Cc1cc(C=C2C(=O)N(C)C(=S)N(C)C2=O)c(C)n1-c1cccnc1	inconclusive: 17.8 µM [inhibitor, single point]
COc1cccc(N2C(=O)NC(=O)/C(=C/c3ccc([N+](=O)[O-])s3)C2=O)c1	inconclusive: 35.5 µM [inhibitor, single point]
N/C(=N\N=C\c1ccc(O)cc1O)N[N+](=O)[O-]	inconclusive: 2.51 µM [inhibitor, full curve, poor fit]
CCN(CC)C(=O)c1ccc(NC(=O)COc2ccc([N+](=O)[O-])cc2Cl)cc1	inactive
O=C1NC(=O)C(=Cc2ccc3ccccc3c2)C(=O)N1	inconclusive: 35.5 µM [inhibitor, single point]
COC(=O)c1c2[n+](cc3cc(OC)c(OC)cc13)CCc1cc(OC)c(OC)cc1-2	inconclusive: 35.5 µM [inhibitor, single point]
C[C@]12CC[C@@H]3c4ccc(OC(=O)N(CCCl)CCCl)cc4CC[C@H]3[C@@H]1CC[C@@H]2O	inconclusive: 31.6 µM [inhibitor, single point]
CCCN1CCc2cccc3c2[C@H]1Cc1ccc(O)c(O)c1-3	inconclusive: 35.5 µM [inhibitor, single point]
O=C1NC(=S)NC(=O)C1=Cc1ccc2c(c1)CCN2CCCCl	active: 10 µM
Cc1ccccc1N1C(=O)NC(=O)/C(=C\c2ccc3c(c2)CCCN3Cc2ccccc2)C1=O	inconclusive: 20 µM [inhibitor, single point]
CN1Cc2cnnn2-c2ccccc2C1C#N (configuration not stated)	inactive
O=c1c2ccccc2nc(/C=C/c2cccnc2)n1Cc1ccccc1	inconclusive: 31.6 µM [inhibitor, single point]
CCOc1cc(/C=C2/C(=O)NC(=O)N(c3ccc(CC)cc3)C2=O)ccc1OC(=O)c1cccs1	inconclusive: 20 µM [inhibitor, single point]
COc1cc(C=C2C(=O)NC(=O)NC2=O)ccc1OCc1ccc([N+](=O)[O-])cc1	inconclusive: 20 µM [inhibitor, partial curve, poor fit]
Oc1cc(Cl)ccc1Oc1ccc(Cl)cc1Cl	inconclusive: 35.5 µM [inhibitor, single point]
Nc1ccc2c3c(cccc13)-c1ccccc1-2	inconclusive: 11.2 µM [inhibitor, partial curve]
CC1(C)CC(n2[nH]c(=O)c3c2NC(=O)CSC3c2ccccc2)CCO1 (configuration not stated)	inconclusive: 15.8 µM [inhibitor, single point]
CCOC(=O)[C@]12Cc3cc(OC)ccc3[C@H]1N(C1CCCCC1)C(=O)c1ccccc12	inactive
CC(C)N1C(=O)/C(=C/C=C/c2ccco2)C(=O)N(Cc2ccco2)C1=O	inconclusive: 22.4 µM [inhibitor, single point]
C=CCn1c(O)c(/C(C)=N/NC(=S)Nc2ccccc2)c(=O)[nH]c1=O	inconclusive: 35.5 µM [inhibitor, single point]
O=c1c2ccccc2nc(-c2ccccc2)n1-c1ccccc1	inactive
O=C1CN=C(c2ccccc2)c2cc(Cl)ccc2N1CC1CC1	inactive

SMILES	Potency
CC1(C)OC(c2ccccc2)=C/C(=C/C=C2C(=O)NC(=S)NC2=O)O1	inactive
COc1ccc(N2C(=O)/C(=C/c3ccc(C)o3)C(=O)NC2=S)cc1	inconclusive: 12.6 µM [inhibitor, partial curve]
Cc1cc(/C=C2\C(=O)NC(=O)N(Cc3ccco3)C2=O)c(C)n1-c1ccc(O)cc1	inconclusive: 31.6 µM [inhibitor, single point]
CCCC(=O)OC(C(Cl)(Cl)Cl)P(=O)(OC)OC (configuration not stated)	inconclusive: 35.5 µM [inhibitor, single point]
Cc1ccc(-c2nc(N3CCOCC3)s[n+]2-c2ccccc2)cc1	inconclusive: 35.5 µM [inhibitor, single point]
COc1cc(/C=C/c2nc3ccccc3c(=O)n2-c2ccccc2O)ccc1O	inconclusive: 10 µM [inhibitor, partial curve]
O=C1c2cccc(N3CCNCC3)c2C2CCCCN12 (configuration not stated)	inactive
O=C(NC1(C(F)(F)F)Oc2ccc(Cl)cc2O1)N1CCC2(CC1)OCCO2 (configuration not stated)	inconclusive: 35.5 µM [inhibitor, single point]
COc1ccc(Cc2c(O)[nH]c(=S)[nH]c2=O)cc1	inconclusive: 25.1 µM [inhibitor, single point]
Cn1cc(/C=C2\C(=O)NC(=O)N(c3ccccc3)C2=O)c2ccccc21	inconclusive: 7.08 µM [inhibitor, full curve]
CC(C)C[C@H]1C(=O)N2CCCC2[C@]2(O)O[C@](NC(=O)[C@@H]3C=C4c5cccc6[nH]c(Br)c(c56)C[C@H]4N(C)C3)(C(C)C)C(=O)N12 (some centres not stated)	inconclusive: 35.5 µM [inhibitor, single point]
Oc1ccccc1O	inconclusive: 35.5 µM [inhibitor, single point]
O=[N+]([O-])c1ccc(N2CC2)c([N+](=O)[O-])c1	inactive
COc1ccc(Cc2nccc3cc(OC)c(OC)cc23)cc1OC	inactive
C=Cn1c(P(=S)(N2CCOCC2)N2CCOCC2)cc2c1CCCC2	inconclusive: 35.5 µM [inhibitor, single point]
Nc1ccc(Cl)c(Cl)c1	inactive
CC1CCC(C(C)C)C(OC(=O)Cn2c(COc3ccccc3)[n+](C)c3ccccc32)C1 (configuration not stated)	inconclusive: 10 µM [inhibitor, partial curve]
CCN1/C(=C\C=C\C2=[N+](CC)c3ccccc3C2(C)C)C(C)(C)c2ccccc21	inconclusive: 17.8 µM [inhibitor, single point]
O=c1[nH]c(=S)n(-c2ccccc2)c(O)c1/C=N/N1CCCCC1c1cccnc1 (configuration not stated)	inactive
COc1ccc(OC)c(N2C(=O)NC(=O)/C(=C\c3ccc([N+](=O)[O-])s3)C2=O)c1	active: 10 µM
C=CCc1ccc(OC(=O)NC2CCCCC2)c(OC)c1	inconclusive: 35.5 µM [inhibitor, single point]
